Values joined by “and” are separate entries in the source; they are usually repeats but may differ in a detail not shown here. Equal values may be shown once. Inconclusive results, whose numbers are uncertain, are shown with a selection of clear calls. A potency beside an inconclusive call is a rough fit, not a confirmed value. Active and inactive are the calls of the source. Calls follow the shape of the dose curve; as a rule, active = well fitted activation curve with a large enough effect in the main read-out, with a control signal flat (not every such curve was filed as active); inconclusive = small, poorly fitted or top-dose-only effect, or effect the other way, or a change in a side signal; inactive = flat fitted curve, though single readings scatter.
The molecules below were run against 3',5'-cyclic-AMP phosphodiesterase 4B (Homo sapiens) (UniProt Q07343) (assay: qHTS Assay for Inhibitors of PDE-IV (AID 607; as to activation (PDE inhibition): % of control where 0% means no effect)). Conditions: HEK293 ACTOne CNG channel cells, membrane potential fluorescence; activation (PDE inhibition): at 22.9 µM (top of the series).
UniProt Q07343, sequence (Q07343 whole entry, looked up): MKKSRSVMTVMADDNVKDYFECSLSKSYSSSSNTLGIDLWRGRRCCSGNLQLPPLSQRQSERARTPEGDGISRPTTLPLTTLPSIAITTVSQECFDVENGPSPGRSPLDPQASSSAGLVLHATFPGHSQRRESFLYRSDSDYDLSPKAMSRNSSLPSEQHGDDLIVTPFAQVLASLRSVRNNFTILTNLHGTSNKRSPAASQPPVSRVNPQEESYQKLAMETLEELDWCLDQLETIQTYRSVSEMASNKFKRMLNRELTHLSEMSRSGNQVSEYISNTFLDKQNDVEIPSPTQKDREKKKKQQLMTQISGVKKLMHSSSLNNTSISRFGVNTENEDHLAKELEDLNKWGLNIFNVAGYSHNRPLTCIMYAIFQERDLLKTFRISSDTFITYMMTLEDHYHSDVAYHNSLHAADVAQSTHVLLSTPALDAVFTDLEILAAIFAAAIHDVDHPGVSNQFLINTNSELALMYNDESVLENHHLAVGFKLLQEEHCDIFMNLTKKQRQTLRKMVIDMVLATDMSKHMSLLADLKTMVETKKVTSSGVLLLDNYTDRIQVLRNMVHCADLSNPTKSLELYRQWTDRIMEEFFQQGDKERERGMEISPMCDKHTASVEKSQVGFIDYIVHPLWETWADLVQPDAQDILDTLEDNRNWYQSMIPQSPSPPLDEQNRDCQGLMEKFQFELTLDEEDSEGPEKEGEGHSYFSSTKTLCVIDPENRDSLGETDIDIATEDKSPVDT
Description: NIH Chemical Genomics Center [NCGC]
NIH Molecular Libraries Screening Centers Network [MLSCN]
The cyclic nucleotide phosphodiesterases (PDEs) are proteins that catalyze hydrolysis of 3', 5'-cyclic nucleotides, such as cyclic adenosine monophosphate (cAMP) and cyclic guanosine monophosphate (cGMP), to their corresponding 5'-nucleotide monophosphates. These enzymes play an important role in controlling cellular concentrations of cyclic nucleotides and have a central role in a variety of intracellular signaling events. cAMP PDEs are emerging as a promising class of drug targets in asthma and cardiovascular disease therapeutic areas.
There are no commercially available cell-based screening assays for PDE inhibitors: currently biochemical assays are done using pure substrates (cAMP or cGMP) and purified recombinant PDE enzymes. As with other biochemical screens on intracellular targets, false positives and false negatives may result from issues involving cell membrane permeability, cellular metabolism, and the like.
Here we report the development of a cell-based screening assay for cAMP phosphodiesterase (PDE) inhibitors. The assay is based on the BD ACTOne# technology (BD Biosciences) which utilizes a modified cyclic nucleotide-gated channel (CNG) to monitor intracellular cAMP changes in live cells. The CNG channel is localized on the plasma membrane, and opens when the intracellular cAMP level increases, resulting in ion flux and cell membrane depolarization. The influx of cations through the CNG channel can be quantified using membrane potential (MP) dyes. We modified the BD ACTOne technology to allow the detection of PDE inhibitors, and performed an inhibitor screen for PDE-IV, which is expressed endogenously in HEK293 cells. We optimized this assay in homogeneous 1536-well plate assay format for high throughput screening.
NCGC Assay Protocol Summary:
The medium contained 10% FBS (Invitrogen), 2 mM L-glutamine, and 250 ug/ml G418 (Cellgro) and 1 ug/ml puromycin (Clontech). ACTOneTM parental cells (BD Biosciences) were maintained in the same medium without puromycin.
The activity of the CNG channel was measured by BD ACTOneTM membrane potential dye kit (BD Biosciences). Forskolin, a positive control for cAMP activation and RO 20-1724, a PDE inhibitor, were both purchased from Sigma and solublized in DMSO.
Sequence,Parameter,Value,Description
1,Reagent,3 uL,1000 cells/well 1536 TC treated Black plate
3,Compound,0.5 uL,Kalypsys dispense RO 20-1724 100 uM final [A]
4,Reagent,3 uL,BD membrane potential dye
6,Compound,23 nL,Final concentration was 0.7nM to 22.9uM
8,Detector,EX 535 / EM 590 [B],Envision
Footnotes: [A] The stock 2 mM RO 20-1724 PDE inhibitor was made in 10 % DMSO. Parental cell line received 10 uM forskolin + 100 uM RO. [B] Envsion settings: Bottom Excitation 535/20 nm top emission 590/20, gain of 150 and 5 flashes per well.
Keywords: PDE, PDE-IV, cytotoxicity, flourescence, MLSMR, MLSCN, NIH Roadmap, qHTS, NCGC
Potency is read from the fitted curve at half-maximal effect; tags tell the direction and shape of the fitted curve.

**Q.** How did the Potency turn out when `CCCN(CC1CC1)c1nc(C)nc(Nc2c(Cl)cc(Cl)cc2Cl)c1Cl` was run?
**A.** inconclusive: 15.1 µM [rising, single point]

**Q.** For `CC(C)(CO)Cc1cc(C(C)(C)C)c(O)c(C(C)(C)C)c1`, which Potency is on record?
**A.** inconclusive: 15.1 µM [rising, partial curve]

**Q.** How did the Potency turn out when `Cc1ncc(CO)c(CO)c1O` was run?
**A.** inactive

**Q.** Which Potency does the source give for `Cc1cc(NC(=O)C2=C(O)c3ccccc3S(=O)(=O)N2C)no1` here?
**A.** inactive

**Q.** For `CN=C(N)NCCC[C@H](N)C(=O)O`, which Potency is on record?
**A.** inconclusive: 19 µM [inhibitor, single point]

**Q.** Which Potency does the source give for `OC(CCCN1CCCCC1)(c1ccccc1)c1ccccc1` here?
**A.** inconclusive: 15.1 µM [activator, partial curve, poor fit]

**Q.** How did the Potency turn out when `CCN(CC)CCNC(=O)c1cc(S(C)(=O)=O)ccc1OC` was run?
**A.** inactive

**Q.** With `CCc1ccc2c(-c3cccc(Cl)c3)nc(=O)n(CC)c2n1` as the molecule, how does the Potency read?
**A.** active: 0.012 µM

**Q.** How did the Potency turn out when `COc1ccccc1CNCCCCCCNCCCCCCCCNCCCCCCNCc1ccccc1OC` was run?
**A.** inactive

**Q.** `Nc1nc2ncc(CNc3ccc(C(=O)N[C@@H](CCC(=O)O)C(=O)O)cc3)nc2c(=O)[nH]1` was tested. Which Potency did it give?
**A.** inactive

**Q.** Which Potency does the source give for `O=C(O)c1cc2ccccc2c(Cc2c(O)c(C(=O)O)cc3ccccc23)c1O` here?
**A.** inactive

**Q.** How did the Potency turn out when `COc1cc(N)c(Cl)cc1C(=O)NC1CCN(Cc2ccccc2)CC1` was run?
**A.** inactive

**Q.** With `O=C(O)c1cc(=O)c2ccccc2[nH]1` as the molecule, how does the Potency read?
**A.** inconclusive: 15.1 µM [inhibitor, single point]

**Q.** How did the Potency turn out when `Cc1nc(N=Nc2ccc(S(=O)(=O)O)cc2S(=O)(=O)O)c(COP(=O)(O)O)c(C=O)c1O` was run?
**A.** inactive

**Q.** With `CC[C@@H]1Cc2cc(O)ccc2C2=C1c1ccc(O)cc1C[C@H]2CC` as the molecule, how does the Potency read?
**A.** inactive

**Q.** Which Potency does the source give for `O=c1cc(-c2cccc(O)c2)oc2c(O)c(O)ccc12` here?
**A.** inconclusive: 19 µM [inhibitor, single point]

**Q.** For `O=C(O)CCc1nc(-c2ccccc2)c(-c2ccccc2)o1`, which Potency is on record?
**A.** inconclusive: 19 µM [rising, single point]

**Q.** For `Cc1nc(N=Nc2cc(S(=O)(=O)O)c3cc([N+](=O)[O-])cc(S(=O)(=O)O)c3c2)c(COP(=O)(O)O)c(C=O)c1O`, which Potency is on record?
**A.** inconclusive: 19 µM [inhibitor, single point]

**Q.** With `c1ccc(CC2=NCCN2)cc1` as the molecule, how does the Potency read?
**A.** inactive

**Q.** For `COc1cc(Cc2cnc(N)nc2N)cc(OC)c1OC`, which Potency is on record?
**A.** inconclusive: 2.51 µM [inhibitor, full curve, poor fit]

**Q.** Which Potency does the source give for `O=C(O)C1=CCCN(CCON=C(c2ccccc2)c2ccccc2)C1` here?
**A.** inconclusive: 19 µM [inhibitor, single point]

**Q.** How did the activation (PDE inhibition) turn out when `CCCC(=O)Nc1ncnc2c1ncn2[C@@H]1O[C@@H]2COP(=O)(O)O[C@H]2[C@H]1OC(=O)CCC` was run?
**A.** inconclusive: -46.2%

**Q.** How did the Potency turn out when `COc1ccc(C[C@H](C)NC[C@@H](O)c2ccc(O)c(NC=O)c2)cc1` was run?
**A.** inconclusive: 19 µM [inhibitor, single point]

**Q.** How did the Potency turn out when `O=C(O)[C@@H]1C[C@@H](C(=O)O)N1` was run?
**A.** inconclusive: 19 µM [inhibitor, single point]

**Q.** For `Cc1c(-c2ccccc2)oc2c(C(=O)OCCN3CCCCC3)cccc2c1=O`, which Potency is on record?
**A.** inconclusive: 12 µM [activator, partial curve]

**Q.** `O=S(=O)(c1cccc2c(Cl)cccc12)N1CCCNCC1` was tested. Which Potency did it give?
**A.** inactive and inconclusive: 7.55 µM [activator, partial curve]

**Q.** `CCCCNc1cc(C(=O)O)cc(S(N)(=O)=O)c1Oc1ccccc1` was tested. Which Potency did it give?
**A.** inactive

**Q.** `N[C@H](CC(=O)O)C(=O)O` was tested. Which Potency did it give?
**A.** inconclusive: 19 µM [inhibitor, single point]

**Q.** How did the Potency turn out when `Brc1c(NC2=NCCN2)ccc2nccnc12` was run?
**A.** inconclusive: 19 µM [inhibitor, single point]

**Q.** For `CC(C)OC(=O)C(C)(C)Oc1ccc(C(=O)c2ccc(Cl)cc2)cc1`, which Potency is on record?
**A.** inconclusive: 23.9 µM [activator, partial curve, poor fit]

**Q.** With `CN1CCc2ccccc2Cc2[nH]c3ccccc3c2CC1` as the molecule, how does the Potency read?
**A.** inconclusive: 0.0755 µM [activator, full curve, poor fit]

**Q.** `N#C/C(=C\c1ccc(O)c(O)c1)C(=O)NCCCc1ccccc1` was tested. Which Potency did it give?
**A.** inconclusive: 9.51 µM [activator, partial curve]

**Q.** With `FC(F)(F)c1ccccc1-n1ccnc1` as the molecule, how does the Potency read?
**A.** inconclusive: 19 µM [inhibitor, single point]

**Q.** With `c1csc(CNc2ncnc3ccc(-c4ccc5c(c4)OCO5)cc23)c1` as the molecule, how does the Potency read?
**A.** inconclusive: 7.94 µM [activator, partial curve, poor fit]

**Q.** Which Potency does the source give for `CC[N+](C)(C)c1cccc(O)c1` here?
**A.** inactive

**Q.** For `NC(N)=Nc1nc(CSCC/C(N)=N/S(N)(=O)=O)cs1`, which Potency is on record?
**A.** inactive

**Q.** How did the Potency turn out when `NCc1ccc(S(N)(=O)=O)cc1` was run?
**A.** inactive

**Q.** For `CN1[C@@H]2CC[C@H]1CC(OC(c1ccccc1)c1ccccc1)C2` (stereo not given in full), which Potency is on record?
**A.** inactive

**Q.** For `O=c1[nH]c2cc([N+](=O)[O-])c([N+](=O)[O-])cc2[nH]c1=O`, which Potency is on record?
**A.** inactive and inconclusive: 19 µM [inhibitor, single point]

**Q.** For `O=C(N[C@@H](Cc1ccccc1)C(=O)CCl)OCc1ccccc1`, which Potency is on record?
**A.** inactive

Reference: PubChem BioAssay (NCATS)
